Hit rate of the full screen: of about 310,000 compounds, about 2,200 (0.71%) showed an effect of 50% or more. The effect is printed as a negative number. Some of the results follow.
target: human ether-à-go-go-related gene (hERG) potassium channel (human, UniProt Q12809); test: primary screen, population patch clamp on CHO cells stably expressing hERG
Sequence (Q12809 whole entry, looked up): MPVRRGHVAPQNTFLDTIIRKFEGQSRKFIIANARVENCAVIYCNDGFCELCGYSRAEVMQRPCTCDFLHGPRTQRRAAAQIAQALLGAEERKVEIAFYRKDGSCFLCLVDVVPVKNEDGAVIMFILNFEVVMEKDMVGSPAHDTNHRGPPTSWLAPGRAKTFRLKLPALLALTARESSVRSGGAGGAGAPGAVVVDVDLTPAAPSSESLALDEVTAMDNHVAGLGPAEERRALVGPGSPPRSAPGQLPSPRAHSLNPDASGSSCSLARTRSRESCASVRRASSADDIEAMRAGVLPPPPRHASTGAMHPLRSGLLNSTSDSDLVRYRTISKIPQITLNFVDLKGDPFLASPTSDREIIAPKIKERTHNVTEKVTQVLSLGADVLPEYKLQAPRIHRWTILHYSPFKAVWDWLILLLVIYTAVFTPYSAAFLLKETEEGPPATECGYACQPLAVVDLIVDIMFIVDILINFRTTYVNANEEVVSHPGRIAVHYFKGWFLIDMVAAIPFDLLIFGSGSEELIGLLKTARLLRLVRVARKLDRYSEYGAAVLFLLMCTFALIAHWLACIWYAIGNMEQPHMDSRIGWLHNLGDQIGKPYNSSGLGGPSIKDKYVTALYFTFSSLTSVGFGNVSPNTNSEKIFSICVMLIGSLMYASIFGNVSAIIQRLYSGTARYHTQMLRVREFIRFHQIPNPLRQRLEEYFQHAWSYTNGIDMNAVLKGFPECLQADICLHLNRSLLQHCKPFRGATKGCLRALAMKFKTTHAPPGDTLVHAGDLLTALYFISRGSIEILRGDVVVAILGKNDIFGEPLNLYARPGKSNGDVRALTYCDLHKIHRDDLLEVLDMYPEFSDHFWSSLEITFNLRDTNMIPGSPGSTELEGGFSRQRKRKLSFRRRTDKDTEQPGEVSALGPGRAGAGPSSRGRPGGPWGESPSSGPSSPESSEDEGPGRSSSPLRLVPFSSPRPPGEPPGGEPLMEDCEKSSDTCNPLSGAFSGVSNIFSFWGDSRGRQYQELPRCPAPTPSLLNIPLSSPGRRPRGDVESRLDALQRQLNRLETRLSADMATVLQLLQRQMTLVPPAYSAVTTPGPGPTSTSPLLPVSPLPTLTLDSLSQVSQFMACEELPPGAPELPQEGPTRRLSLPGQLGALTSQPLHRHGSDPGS

Row | SMILES | hERG current change (%, negative = inhibition) at 1uM
1 | CCOc1ccccc1CN1CCNC(=O)C1CC(=O)NCc1nc(C)cs1 (stereo not shown) | -5.34%
2 | Clc1ccccc1Sc1cnc2ccccc2n1 | -5.31%
3 | COc1ccc(N2CC(C(=O)N3CCN(c4ccccc4F)CC3)CC2=O)cc1 (stereo not shown) | -6.33%
4 | COCCNC(=S)Nc1ccc(N2CCCCC2)cc1 | 0.561%
5 | COc1ccc(-c2ccc3nnc(SCC(=O)Nc4ccc(NC(C)=O)cc4)n3n2)cc1 | 11.9%
6 | CCNc1nc(NC(C)C)nc(Oc2ccc(OCc3ccccc3)nn2)n1 | 3.26%
7 | CCOc1ccc(OCC)c(S(=O)(=O)n2cnc(C)c2)c1 | 11%
8 | Cc1ccc(CSCC2Nc3ccc(C(=O)N4CCN(c5ccc(F)cc5)CC4)cc3NC2=O)cc1 (stereo not shown) | 16.7%
9 | O=C(NCc1ccco1)c1cc(-c2cccs2)nc2ccccc12 | 13.4%
10 | COc1ccc(CC(=O)NC(=S)NNC(=O)COc2c(C)cccc2C)cc1 | 4.76%
11 | CCCCCCC12CCC(C(=O)O)(CC1)CC2 | 4.88%
12 | CNC(=S)NNC(=O)c1oc2nc(-c3ccccc3)cc(C)c2c1N | -3.52%
13 | CCOC(=O)c1c(C)[nH]c(C)c1S(=O)(=O)N(C)Cc1ccco1 | 18.2%
14 | CCc1ccc(NC(=O)c2ccc(Cn3cc([N+](=O)[O-])cn3)cc2)cc1 | 10.6%
15 | CN(Cc1ccccc1)S(=O)(=O)c1ccc(OCC(=O)Nc2cccc([N+](=O)[O-])c2)cc1 | 7.23%
16 | COc1ccc(S(=O)(=O)N(CC(=O)Nc2cccnc2)c2ccccc2OC)cc1 | 0.84%
17 | O=C(O)CCC1COc2ccccc2O1 (stereo not shown) | 15.5%
18 | CN(C(=O)NC(=O)C1=C(N2CCOCC2)/C(=C/c2ccccc2)CC1)S(C)(=O)=O | 13.8%
19 | O=C(Nc1nccs1)c1ccc2nccnc2c1 | 11.6%
20 | CCOc1ccc(C2C(C#N)=C(N)Oc3cc(O)ccc32)cc1OCC (stereo not shown) | 11.8%
21 | CN1C(=O)c2ccc(C(=O)Nc3nccs3)cc2C1=O | -36.3%
22 | CCn1c(C)cc(=O)cc1-c1ccc(Cl)cc1 | 12.8%
23 | Cc1noc2ncnc(Sc3ccc(Br)cc3)c12 | 7.75%
24 | COC(=O)c1cccc(NC(=O)NC23CC4CC(CC(C4)C2)C3)c1 | 3.34%
25 | CN1C(C(=O)NCC2CC2)CC2Cn3c(nc4cc5ccccc5cc43)C21 (stereo not shown) | 7.22%
